# Source: the supplement of paper PMC8728848
# This is one part of the list.
# B1: AFL5 (Aspergillus fumigatus), Q4WB00 (protein)
# chain: MDNFMEMTKKLGHQPELLRLRALDATYDDALEGKLVVAPLDMSEPGKKILDSGTADGTWLRNVRSKQSVPHDYYGSDVEGELFPKDPDGITYFAHSFKDPWPQQYLGFFDLVHIRGSLAGSAPEGPAPVIQNLTTLLKPGGWVQLMEMNAFSPPPNGPAMTDFAKMASEMFTGIGVGDFANNNKSMLEDAGLKNVQEKRVIVNLGKKAKPELHDQSIHGVTGPIVPLTSVARTVKSSFTGEQLDALPARVKEELETEGGQVEMIIAFGQKA
# Assays:
# Experiment in all cases: glycan array binding signal (z-score within array); higher = stronger binding
# Settings in all cases: glycan notation: IUPAC condensed, linker removed
# [1] = molecular target: Fuc(a1-2)Gal6S(b1-3)GlcNAc
# Outline: (§1)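 Glycan array binding is given as a within-array Z-score, which can be read as non-binding when negative. The arrays, 3228 of them, came from the Consortium for Functional Glycomics database and were retained only where the protein sequence was available. Z-scores were averaged across arrays of the same protein sequence at different concentrations or buffers and across linkers.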
# [2] = molecular target: Fuc(a1-2)Gal6S(b1-3)GlcNAc6S
# Outline: as §1
# [3] = molecular target: Fuc(a1-2)Gal6S(b1-4)Glc
# Outline: as §1
# [4] = molecular target: Fuc(a1-2)Gal6S(b1-4)Glc6S
# Outline: as §1
# [5] = molecular target: Fuc(a1-2)[Gal(a1-3)]Gal
# Outline: as §1
# [6] = molecular target: Fuc(a1-2)[Gal(a1-3)]Gal(b1-3)GalNAc
# Outline: as §1
# [7] = molecular target: Fuc(a1-2)[Gal(a1-3)]Gal(b1-3)GalNAc(b1-3)Gal(a1-4)Gal(b1-4)Glc
# Outline: as §1
# [8] = molecular target: Fuc(a1-2)[Gal(a1-3)]Gal(b1-3)GlcNAc
# Outline: as §1
# [9] = molecular target: Fuc(a1-2)[Gal(a1-3)]Gal(b1-3)GlcNAc(b1-2)Man(a1-3)[Fuc(a1-2)[Gal(a1-3)]Gal(b1-3)GlcNAc(b1-2)Man(a1-6)]Man(b1-4)GlcNAc(b1-4)GlcNAc
# Outline: as §1
# [10] = molecular target: Fuc(a1-2)[Gal(a1-3)]Gal(b1-3)GlcNAc(b1-2)Man(a1-3)[Fuc(a1-2)[Gal(a1-3)]Gal(b1-3)GlcNAc(b1-2)Man(a1-6)]Man(b1-4)GlcNAc(b1-4)[Fuc(a1-6)]GlcNAc
# Outline: as §1
# [11] = molecular target: Fuc(a1-2)[Gal(a1-3)]Gal(b1-3)GlcNAc(b1-3)GalNAc
# Outline: as §1
# [12] = molecular target: Fuc(a1-2)[Gal(a1-3)]Gal(b1-3)GlcNAc(b1-6)GalNAc
# Outline: as §1
# [13] = molecular target: Fuc(a1-2)[Gal(a1-3)]Gal(b1-4)Glc
# Outline: as §1
# [14] = molecular target: Fuc(a1-2)[Gal(a1-3)]Gal(b1-4)GlcNAc
# Outline: as §1
# [15] = molecular target: Fuc(a1-2)[Gal(a1-3)]Gal(b1-4)GlcNAc(b1-2)Man
# Outline: as §1
# [16] = molecular target: Fuc(a1-2)[Gal(a1-3)]Gal(b1-4)GlcNAc(b1-2)Man(a1-3)[Fuc(a1-2)[Gal(a1-3)]Gal(b1-4)GlcNAc(b1-2)Man(a1-6)]Man(b1-4)GlcNAc(b1-4)GlcNAc
# Outline: as §1
# [17] = molecular target: Fuc(a1-2)[Gal(a1-3)]Gal(b1-4)GlcNAc(b1-2)Man(a1-3)[Fuc(a1-2)[Gal(a1-3)]Gal(b1-4)GlcNAc(b1-2)Man(a1-6)]Man(b1-4)GlcNAc(b1-4)[Fuc(a1-6)]GlcNAc
# Outline: as §1
# [18] = molecular target: Fuc(a1-2)[Gal(a1-3)]Gal(b1-4)GlcNAc(b1-3)GalNAc
# Outline: as §1
# [19] = molecular target: Fuc(a1-2)[Gal(a1-3)]Gal(b1-4)GlcNAc(b1-3)[Fuc(a1-2)[Gal(a1-3)]Gal(b1-4)GlcNAc(b1-6)]GalNAc
# Outline: as §1
# [20] = molecular target: Fuc(a1-2)[Gal(a1-3)]Gal(b1-4)GlcNAc(b1-6)GalNAc
# Outline: as §1
# [21] = molecular target: Fuc(a1-2)[Gal(a1-3)]Gal(b1-4)[Fuc(a1-3)]Glc
# Outline: as §1
# [22] = molecular target: Fuc(a1-2)[Gal(a1-3)]Gal(b1-4)[Fuc(a1-3)]GlcNAc
# Outline: as §1
# [23] = molecular target: Fuc(a1-2)[Gal(a1-3)]Gal(b1-4)[Fuc(a1-3)]GlcNAc(b1-3)GalNAc
# Outline: as §1
# [24] = molecular target: Fuc(a1-2)[Gal(a1-4)]Gal(b1-4)GlcNAc
# Outline: as §1
# [25] = molecular target: Fuc(a1-2)[GalNAc(a1-3)]Gal
# Outline: as §1
# [26] = molecular target: Fuc(a1-2)[GalNAc(a1-3)]Gal(b1-3)GalNAc(a1-3)[Fuc(a1-2)]Gal(b1-4)GlcNAc
# Outline: as §1
# [27] = molecular target: Fuc(a1-2)[GalNAc(a1-3)]Gal(b1-3)GalNAc(b1-3)Gal(a1-4)Gal(b1-4)Glc
# Outline: as §1
# [28] = molecular target: Fuc(a1-2)[GalNAc(a1-3)]Gal(b1-3)GlcNAc
# Outline: as §1
# [29] = molecular target: Fuc(a1-2)[GalNAc(a1-3)]Gal(b1-3)GlcNAc(b1-2)Man(a1-3)[Fuc(a1-2)[GalNAc(a1-3)]Gal(b1-3)GlcNAc(b1-2)Man(a1-6)]Man(b1-4)GlcNAc(b1-4)GlcNAc
# Outline: as §1
# [30] = molecular target: Fuc(a1-2)[GalNAc(a1-3)]Gal(b1-3)GlcNAc(b1-2)Man(a1-3)[Fuc(a1-2)[GalNAc(a1-3)]Gal(b1-3)GlcNAc(b1-2)Man(a1-6)]Man(b1-4)GlcNAc(b1-4)[Fuc(a1-6)]GlcNAc
# Outline: as §1
# [31] = molecular target: Fuc(a1-2)[GalNAc(a1-3)]Gal(b1-3)GlcNAc(b1-3)GalNAc
# Outline: as §1
# [32] = molecular target: Fuc(a1-2)[GalNAc(a1-3)]Gal(b1-3)GlcNAc(b1-6)GalNAc
# Outline: as §1
# [33] = molecular target: Fuc(a1-2)[GalNAc(a1-3)]Gal(b1-4)Glc
# Outline: as §1
# [34] = molecular target: Fuc(a1-2)[GalNAc(a1-3)]Gal(b1-4)GlcNAc
# Outline: as §1
# [35] = molecular target: Fuc(a1-2)[GalNAc(a1-3)]Gal(b1-4)GlcNAc(b1-2)Man
# Outline: as §1
# [36] = molecular target: Fuc(a1-2)[GalNAc(a1-3)]Gal(b1-4)GlcNAc(b1-2)Man(a1-3)[Fuc(a1-2)[GalNAc(a1-3)]Gal(b1-4)GlcNAc(b1-2)Man(a1-6)]Man(b1-4)GlcNAc(b1-4)GlcNAc
# Outline: as §1
# [37] = molecular target: Fuc(a1-2)[GalNAc(a1-3)]Gal(b1-4)GlcNAc(b1-2)Man(a1-3)[Fuc(a1-2)[GalNAc(a1-3)]Gal(b1-4)GlcNAc(b1-2)Man(a1-6)]Man(b1-4)GlcNAc(b1-4)[Fuc(a1-6)]GlcNAc
# Outline: as §1
# [38] = molecular target: Fuc(a1-2)[GalNAc(a1-3)]Gal(b1-4)GlcNAc(b1-3)Gal(b1-4)GlcNAc
# Outline: as §1
# [39] = molecular target: Fuc(a1-2)[GalNAc(a1-3)]Gal(b1-4)GlcNAc(b1-3)Gal(b1-4)GlcNAc(b1-3)Gal(b1-4)GlcNAc
# Outline: as §1
# [40] = molecular target: Fuc(a1-2)[GalNAc(a1-3)]Gal(b1-4)GlcNAc(b1-3)GalNAc
# Outline: as §1
# [41] = molecular target: Fuc(a1-2)[GalNAc(a1-3)]Gal(b1-4)GlcNAc(b1-3)[Fuc(a1-2)[GalNAc(a1-3)]Gal(b1-4)GlcNAc(b1-6)]GalNAc
# Outline: as §1
# [42] = molecular target: Fuc(a1-2)[GalNAc(a1-3)]Gal(b1-4)GlcNAc(b1-6)GalNAc
# Outline: as §1
# [43] = molecular target: Fuc(a1-2)[GalNAc(a1-3)]Gal(b1-4)[Fuc(a1-3)]GlcNAc
# Outline: as §1
# [44] = molecular target: Fuc(a1-2)[GalNAc(a1-3)]Gal(b1-4)[Fuc(a1-3)]GlcNAc(b1-3)GalNAc
# Outline: as §1
# [45] = molecular target: Fuc(a1-2)[GalNAc(a1-4)]Gal(b1-4)GlcNAc
# Outline: as §1
binder,measurement,setting,value
B1,glycan array binding signal (z-score),[1],0.028
same,glycan array binding signal (z-score),[2],0.732
same,glycan array binding signal (z-score),[3],0.138
same,glycan array binding signal (z-score),[4],-0.286
same,glycan array binding signal (z-score),[5],0.028
same,glycan array binding signal (z-score),[6],-0.145
same,glycan array binding signal (z-score),[7],-0.062
same,glycan array binding signal (z-score),[8],-0.252
same,glycan array binding signal (z-score),[9],0.4
same,glycan array binding signal (z-score),[10],-0.194
same,glycan array binding signal (z-score),[11],0.302
same,glycan array binding signal (z-score),[12],-0.151
same,glycan array binding signal (z-score),[13],-0.09
same,glycan array binding signal (z-score),[14],-0.456
same,glycan array binding signal (z-score),[15],0.14
same,glycan array binding signal (z-score),[16],0.381
same,glycan array binding signal (z-score),[17],-0.46
same,glycan array binding signal (z-score),[18],-0.042
same,glycan array binding signal (z-score),[19],-0.032
same,glycan array binding signal (z-score),[20],-0.375
same,glycan array binding signal (z-score),[21],-0.446
same,glycan array binding signal (z-score),[22],-0.109
same,glycan array binding signal (z-score),[23],0.71
same,glycan array binding signal (z-score),[24],0.73
same,glycan array binding signal (z-score),[25],-0.215
same,glycan array binding signal (z-score),[26],0.569
same,glycan array binding signal (z-score),[27],0.018
same,glycan array binding signal (z-score),[28],0.234
same,glycan array binding signal (z-score),[29],-0.628
same,glycan array binding signal (z-score),[30],-0.015
same,glycan array binding signal (z-score),[31],-0.253
same,glycan array binding signal (z-score),[32],-0.237
same,glycan array binding signal (z-score),[33],0.18
same,glycan array binding signal (z-score),[34],-0.059
same,glycan array binding signal (z-score),[35],-0.322
same,glycan array binding signal (z-score),[36],0.442
same,glycan array binding signal (z-score),[37],0.578
same,glycan array binding signal (z-score),[38],-0.015
same,glycan array binding signal (z-score),[39],0.067
same,glycan array binding signal (z-score),[40],-0.267
same,glycan array binding signal (z-score),[41],0.172
same,glycan array binding signal (z-score),[42],-0.529
same,glycan array binding signal (z-score),[43],-0.396
same,glycan array binding signal (z-score),[44],-0.259
same,glycan array binding signal (z-score),[45],-0.503
